The list shows a part of the results.
Assays:
Test in all cases: glycan array binding signal (z-score within array); higher = stronger binding
Settings in all cases: glycan notation: IUPAC condensed, linker removed
[1] = biological target: Neu5Ac(a2-6)Gal(b1-4)GlcNAc(b1-3)Gal(b1-4)GlcNAc(b1-3)GalNAc
In short: (§1)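 Columns mapping to the same glycan were averaged after glycan names were converted to IUPAC-condensed notation. The data come from 3228 arrays in the Consortium for Functional Glycomics database, limited to those with an available protein sequence. Binding is reported as a within-array Z-score averaged across arrays of one protein sequence and across linkers.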

[2] = biological target: Neu5Ac(a2-6)Gal(b1-4)GlcNAc(b1-3)Gal(b1-4)GlcNAc(b1-3)[Neu5Ac(a2-6)Gal(b1-4)GlcNAc(b1-3)Gal(b1-4)GlcNAc(b1-6)]GalNAc
In short: as §1

[3] = biological target: Neu5Ac(a2-6)Gal(b1-4)GlcNAc(b1-3)Gal(b1-4)GlcNAc(b1-6)[Gal(b1-3)]GalNAc
In short: as §1

[4] = biological target: Neu5Ac(a2-6)Gal(b1-4)GlcNAc(b1-3)Gal(b1-4)[Fuc(a1-3)]GlcNAc(b1-3)Gal(b1-4)[Fuc(a1-3)]GlcNAc
In short: as §1

[5] = biological target: Neu5Ac(a2-6)Gal(b1-4)GlcNAc(b1-3)GalNAc
In short: as §1

[6] = biological target: Neu5Ac(a2-6)Gal(b1-4)GlcNAc(b1-3)[Neu5Ac(a2-6)Gal(b1-4)GlcNAc(b1-6)]GalNAc
In short: as §1

[7] = biological target: Neu5Ac(a2-6)Gal(b1-4)GlcNAc(b1-6)GalNAc
In short: as §1

[8] = biological target: Neu5Ac(a2-6)Gal(b1-4)GlcNAc(b1-6)[Gal(b1-3)GlcNAc(b1-3)]Gal(b1-4)Glc
In short: as §1

[9] = biological target: Neu5Ac(a2-6)Gal(b1-4)GlcNAc(b1-6)[Gal(b1-3)]GalNAc
In short: as §1

[10] = biological target: Neu5Ac(a2-6)Gal(b1-4)GlcNAc6S
In short: as §1

Neu5Ac(a2-6)GalNAc = biological target: Neu5Ac(a2-6)GalNAc
In short: as §1

[11] = biological target: Neu5Ac(a2-6)GalNAc(b1-4)GlcNAc
In short: as §1

[12] = biological target: Neu5Ac(a2-6)GalNAc(b1-4)GlcNAc6S
In short: as §1

[13] = biological target: Neu5Ac(a2-6)GlcNAc(b1-4)GlcNAc
In short: as §1

[14] = biological target: Neu5Ac(a2-6)GlcNAc(b1-4)GlcNAc(b1-4)GlcNAc
In short: as §1

Neu5Ac(a2-8)Neu5Ac = biological target: Neu5Ac(a2-8)Neu5Ac
In short: as §1

[15] = biological target: Neu5Ac(a2-8)Neu5Ac(a2-3)Gal(b1-3)GalNAc(b1-4)[Neu5Ac(a2-3)]Gal(b1-4)Glc
In short: as §1

[16] = biological target: Neu5Ac(a2-8)Neu5Ac(a2-3)Gal(b1-3)GalNAc(b1-4)[Neu5Ac(a2-8)Neu5Ac(a2-3)]Gal(b1-4)Glc
In short: as §1

[17] = biological target: Neu5Ac(a2-8)Neu5Ac(a2-3)Gal(b1-4)Glc
In short: as §1

[18] = biological target: Neu5Ac(a2-8)Neu5Ac(a2-3)Gal(b1-4)GlcNAc
In short: as §1

[19] = biological target: Neu5Ac(a2-8)Neu5Ac(a2-3)[Gal(b1-3)GalNAc(b1-4)]Gal(b1-4)Glc
In short: as §1

[20] = biological target: Neu5Ac(a2-8)Neu5Ac(a2-3)[GalNAc(b1-4)]Gal(b1-4)Glc
In short: as §1

[21] = biological target: Neu5Ac(a2-8)Neu5Ac(a2-8)Neu5Ac
In short: as §1

[22] = biological target: Neu5Ac(a2-8)Neu5Ac(a2-8)Neu5Ac(a2-3)Gal(b1-4)Glc
In short: as §1

[23] = biological target: Neu5Ac(a2-8)Neu5Ac(a2-8)Neu5Ac(a2-3)[Gal(b1-3)GalNAc(b1-4)]Gal(b1-4)Glc
In short: as §1

[24] = biological target: Neu5Ac(a2-8)Neu5Ac(a2-8)Neu5Ac(a2-3)[GalNAc(b1-4)]Gal(b1-4)Glc
In short: as §1

[25] = biological target: Neu5Ac(a2-8)Neu5Ac(a2-8)Neu5Ac(a2-8)Neu5Ac(a2-3)[GalNAc(b1-4)]Gal(b1-4)Glc
In short: as §1

[26] = biological target: Neu5Ac(a2-8)Neu5Gc(a2-3)Gal(b1-4)GlcNAc
In short: as §1

[27] = biological target: Neu5Ac(b2-6)Gal(b1-4)GlcNAc
In short: as §1

Neu5Ac(b2-6)GalNAc = biological target: Neu5Ac(b2-6)GalNAc
In short: as §1

[28] = biological target: Neu5Ac9Ac(a2-3)Gal(b1-3)GlcNAc
In short: as §1

[29] = biological target: Neu5Ac9Ac(a2-3)Gal(b1-4)GlcNAc
In short: as §1

[30] = biological target: Neu5Ac9Ac(a2-6)Gal(b1-4)GlcNAc
In short: as §1

[31] = biological target: Neu5Gc(a2-3)Gal(b1-3)GlcNAc
In short: as §1

[32] = biological target: Neu5Gc(a2-3)Gal(b1-3)[Fuc(a1-4)]GlcNAc
In short: as §1

Neu5Gc(a2-3)Gal(b1-4)Glc = biological target: Neu5Gc(a2-3)Gal(b1-4)Glc
In short: as §1

[33] = biological target: Neu5Gc(a2-3)Gal(b1-4)GlcNAc
In short: as §1

[34] = biological target: Neu5Gc(a2-3)Gal(b1-4)GlcNAc(b1-3)Gal(b1-4)GlcNAc(b1-2)Man(a1-3)[Neu5Gc(a2-3)Gal(b1-4)GlcNAc(b1-3)Gal(b1-4)GlcNAc(b1-2)Man(a1-6)]Man(b1-4)GlcNAc(b1-4)GlcNAc
In short: as §1

[35] = biological target: Neu5Gc(a2-3)Gal(b1-4)[Fuc(a1-3)]GlcNAc
In short: as §1

[36] = biological target: Neu5Gc(a2-6)Gal(b1-4)GlcNAc
In short: as §1

Neu5Gc(a2-6)GalNAc = biological target: Neu5Gc(a2-6)GalNAc
In short: as §1

[37] = biological target: Neu5Gc(a2-8)Neu5Ac(a2-3)Gal(b1-4)GlcNAc
In short: as §1

[38] = biological target: Neu5Gc(a2-8)Neu5Gc(a2-3)Gal(b1-4)GlcNAc
In short: as §1

[39] = biological target: Neu5Gc(a2-8)Neu5Gc(a2-3)Gal(b1-4)GlcNAc(b1-3)Gal(b1-4)GlcNAc
In short: as §1

[40] = biological target: Neu5Gc(a2-8)Neu5Gc(a2-6)Gal(b1-4)GlcNAc
In short: as §1

[41] = biological target: Neu5Gc(b2-6)Gal(b1-4)GlcNAc
In short: as §1

B1: FimD (Bordetella pertussis) (protein)
chain: MPARVISFCGAALAVWAGLAVQPAMAVDPPVDCGRALGLHFWSSASLISDQTPDGTLIGKPVVGRSLLSKSCKVPDDIKEDLSDNHDGEPVDIVLELGSNYKIRPQSYGHPGIVVDLPFGSTEETGIAIYIDFGSSPMQKVGERQWLYPQKGEVLFDVLTINGDNAEVRYQAIKVGPLKRPRKLVLSQFPNLFTYKWVFMRGTSQERVLAQGTIDTDVATSTIDLKTCRYTSQTVSLPIIQRSALTGVGTTLGMTDFQMPFWCYGWPKVSVYMSATKTQTGVDGVALPATGQAAGMASGVGVQLINGKTQQPVKLGLQGKIALPEAQQTESATFSLPMKAQYYQTSTSTSAGKLSVTYAVTLNYD
glycan array binding signal (z-score) [1]: -0.147 | glycan array binding signal (z-score) [2]: 0.035 | glycan array binding signal (z-score) [3]: -0.085 | glycan array binding signal (z-score) [4]: -0.201 | glycan array binding signal (z-score) [5]: 0.128 | glycan array binding signal (z-score) [6]: -0.204 | glycan array binding signal (z-score) [7]: -0.143 | glycan array binding signal (z-score) [8]: -0.097 | glycan array binding signal (z-score) [9]: -0.022 | glycan array binding signal (z-score) [10]: -0.459 | glycan array binding signal (z-score) (Neu5Ac(a2-6)GalNAc): -0.41 | glycan array binding signal (z-score) [11]: -0.215 | glycan array binding signal (z-score) [12]: -0.262 | glycan array binding signal (z-score) [13]: -0.316 | glycan array binding signal (z-score) [14]: -0.014 | glycan array binding signal (z-score) (Neu5Ac(a2-8)Neu5Ac): 0.074 | glycan array binding signal (z-score) [15]: -0.328 | glycan array binding signal (z-score) [16]: 1.36 | glycan array binding signal (z-score) [17]: -0.096 | glycan array binding signal (z-score) [18]: -0.669 | glycan array binding signal (z-score) [19]: -0.095 | glycan array binding signal (z-score) [20]: 0.584 | glycan array binding signal (z-score) [21]: -0.233 | glycan array binding signal (z-score) [22]: -0.358 | glycan array binding signal (z-score) [23]: -0.208 | glycan array binding signal (z-score) [24]: -0.22 | glycan array binding signal (z-score) [25]: -0.59 | glycan array binding signal (z-score) [26]: -0.368 | glycan array binding signal (z-score) [27]: -0.262 | glycan array binding signal (z-score) (Neu5Ac(b2-6)GalNAc): -0.348 | glycan array binding signal (z-score) [28]: -0.439 | glycan array binding signal (z-score) [29]: -0.385 | glycan array binding signal (z-score) [30]: -0.466 | glycan array binding signal (z-score) [31]: -0.312 | glycan array binding signal (z-score) [32]: 0.288 | glycan array binding signal (z-score) (Neu5Gc(a2-3)Gal(b1-4)Glc): -0.124 | glycan array binding signal (z-score) [33]: -0.387 | glycan array binding signal (z-score) [34]: 0.349 | glycan array binding signal (z-score) [35]: 0.275 | glycan array binding signal (z-score) [36]: 0.119 | glycan array binding signal (z-score) (Neu5Gc(a2-6)GalNAc): 0.269 | glycan array binding signal (z-score) [37]: -0.294 | glycan array binding signal (z-score) [38]: -0.173 | glycan array binding signal (z-score) [39]: -0.561 | glycan array binding signal (z-score) [40]: -0.611 | glycan array binding signal (z-score) [41]: 0.351

Reference: the supplement of paper PMC8728848
